From PubChem BioAssay AID485344 (National Center for Advancing Translational Sciences (NCATS), 2010)
In all, about 340,000 compounds went through this assay and about 6,900 (2%) were called active. No stated cut-off is given here; in the data, active means inhibition above about 30%; inactive means below that, where a call was filed. The list shows a part of the results, in another mix than the full data. Where no call is shown, the source filed none.

molecular target: D(2) dopamine receptor (Homo sapiens) (UniProt P14416); assay: HTS Assay for Allosteric Antagonists of the Human D2 Dopamine Receptor: Primary Screen for Antagonists; settings: HEK293 TREx D2 cells, calcium flux, dopamine EC80; at 10 µM; stronger effect = higher value; further: 0% is about no effect
UniProt P14416, sequence (P14416 whole entry, looked up): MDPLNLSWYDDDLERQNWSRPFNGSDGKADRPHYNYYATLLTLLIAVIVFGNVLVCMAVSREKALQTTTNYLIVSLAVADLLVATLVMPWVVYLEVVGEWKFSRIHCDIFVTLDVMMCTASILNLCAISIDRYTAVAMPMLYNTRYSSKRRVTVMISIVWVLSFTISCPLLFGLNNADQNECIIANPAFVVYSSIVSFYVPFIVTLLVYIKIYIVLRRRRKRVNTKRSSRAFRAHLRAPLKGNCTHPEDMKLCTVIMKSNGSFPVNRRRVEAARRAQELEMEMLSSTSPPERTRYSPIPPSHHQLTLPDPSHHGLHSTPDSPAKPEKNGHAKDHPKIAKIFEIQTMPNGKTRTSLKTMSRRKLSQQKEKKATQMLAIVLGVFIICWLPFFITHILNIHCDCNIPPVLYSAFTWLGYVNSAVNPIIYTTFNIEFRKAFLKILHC
How it was run: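 HEK293 T-REx D2 cells, tet-induced, calcium dye no-wash. Cpd pintool add, 180 s kinetic, then EC80 DA, 180 s kinetic. Ca flux read.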

Row | SMILES | inhibition
1 | CC(C)c1ccc(C2=NC(c3ccncc3)=Nc3ccc(F)cc3N2)cc1 | 13.1%
2 | Cc1noc2ncnc(NCc3ccc(Cl)cc3)c12 | -0.849%
3 | CN(C)c1ccc(C(=O)Nc2ccc(-c3nc4ccccc4o3)cc2)cc1 | 1.28%
4 | Cc1ccc(-c2cc(NC(=O)C(C)Oc3ccccc3F)on2)cc1 (stereo not drawn) | -1.73%
5 | Cc1cc(NC(=O)C2CCCN(S(=O)(=O)c3cn(C)cn3)C2)ccc1Br (stereo not drawn) | 11.3%
6 | Cn1c(C(=O)N2CCC(C(=O)N3CCN(c4ccccc4)CC3)CC2)cc2sccc21 | -4.34%
7 | Cc1nnc(N2CCN(c3cccc(C(F)(F)F)c3)CC2)c2c1nnn2Cc1ccccc1 | 14.5%
8 | Cc1ccc(CNC(=O)c2c[nH]n3c(=O)c(Cc4ccc(F)cc4Cl)c(C)nc23)cc1 | -11.7%
9 | COc1ccc(N2Cc3cccc(C(=O)Nc4cccc(F)c4)c3C2=O)cc1 | -5.28%
10 | c1ccc(CN2CCN(c3ncccn3)CC2)nc1 | active: 37.3%
11 | CN1CCN(C(c2cccs2)c2nnnn2Cc2ccc(F)cc2)CC1 (stereo not drawn) | active: 41.5%
12 | CC(NC(=O)COC(=O)CCc1ccccc1)c1ccccc1 (stereo not drawn) | active: 34.8%
13 | CC(C)Oc1ccc(CNC(=O)c2cccc(NC(=O)c3nsc4ccccc34)c2)cc1 | 5.1%
14 | CCOc1ccc(CC(=O)Nc2c(C(=O)c3ccc(F)cc3)oc3ccc(Cl)cc23)cc1OCC | -3.99%
15 | COc1ccc(Nc2c3c(nc4ccc(NC(=O)c5cc(Cl)ccc5OC)cc24)CCCC3)cc1OC | -8.95%
16 | O=C(Nc1ccc(C(=O)OCc2cc(=O)n3ccsc3n2)cc1)c1cccc(F)c1 | 14.1%
17 | Cc1cc(C)cc(NC(=O)N2CCC(N3CCN(Cc4ccccc4)C(=O)C3=O)CC2)c1 | 11.4%
18 | COc1ccc(OC)c(CNC(=O)C2CCN(S(=O)(=O)c3ccc4[nH]c(=O)oc4c3)CC2)c1 | 4.38%
19 | COc1ccc(N2CCN(c3oc(/C=C/c4ccccc4OC)nc3C#N)CC2)cc1 | -1.58%
20 | COc1ccc(NC(=O)C(=O)NCc2ccco2)c(OC)c1 | -0.788%
21 | COc1ccc(C(=O)NC2CC3CCCC(C2)N3Cc2ccccc2)c(OC)c1 (stereo not drawn) | active: 86.4%
22 | CCc1ccc(S(=O)(=O)c2nnn3c2nc(NC(C)C)c2cc(Cl)ccc23)cc1 | -2.19%
23 | Cc1cccc(N(CC(=O)N(C)Cc2ccccc2)S(=O)(=O)c2ccccc2)c1C | -24.5%
24 | CCC(=O)N1CCc2cc(Br)cc(S(=O)(=O)N3CCCC(C(=O)Nc4ccc(OC)cc4OC)C3)c21 (stereo not drawn) | -17.5%

Row | SMILES | inhibition
25 | CC(=O)c1cc(-c2ccccc2)n(CCC(=O)NC2CCCCC2)c1C | -17.8%
26 | CC12CN3CC(c4ccccc4)(CN(C1)C3c1ccc(Cl)cc1)C2=O (stereo not drawn) | -11.2%
27 | CCOc1ccc(NC(=O)c2c(NCc3cccs3)sc3c2CCCCC3)cc1 | -23.7%
28 | COC(=O)c1scc(-c2ccccc2)c1S(=O)(=O)Nc1ccc(C)c(Cl)c1 | 8.47%
29 | COc1ccc(C2C=C(c3ccccc3)Nc3nc(NC(=O)/C=C/c4ccccc4OC)nn32)cc1 (stereo not drawn) | 13.7%
30 | Cc1cccc(OCC(=O)N(Cc2ccc(N(C)C)cc2)Cc2ccco2)c1C | 6.3%
31 | Cc1ccnc2nc(NC(=O)c3ccccc3Cl)nn12 | 7.2%
32 | COc1ccc(NS(=O)(=O)c2c(C)nc3scc(C)n3c2=O)cc1 | 3.43%
33 | O=C(Nc1ccc2nc(SCC(=O)N3CCOCC3)sc2c1)c1cccc(F)c1 | 11.1%
34 | COc1cccc(NC(=O)CSC2=Nc3ccccc3C3=NC(CC(=O)NCc4ccccc4OC)C(=O)N23)c1 (stereo not drawn) | -0.428%
35 | O=c1oc2ccc(Cl)cc2cc1-c1cn2c(n1)sc1ccccc12 | -11.1%
36 | CCOC(=O)N1CCN(S(=O)(=O)N2CCCC(C(=O)NCc3ccc(OC)cc3OC)C2)CC1 (stereo not drawn) | 2.73%
37 | CCCCNC(=O)CCSc1nc(-c2ccc3c(c2)OCO3)cc(C(F)(F)F)n1 | 3.88%
38 | O=C(NCCc1ccc(Cl)cc1)c1ccc(CSCc2ccc(Cl)cc2)o1 | 4.94%
39 | CCc1ccccc1NC(=O)Cn1c(=O)n(CCc2ccccc2)c(=O)c2ccccc21 | 4.33%
40 | CCCC(=O)n1nc(-c2cccnc2)nc1NCc1ccccc1 | -12.3%
41 | CCOc1ccc(NC(=O)CCC(=O)N2CCSc3ccccc32)cc1 | -19.2%
42 | COc1ccc(N2CCN(C(=O)Nc3ccccc3Cl)CC2)cc1 | -8.85%
43 | O=C(O)CCn1cnc2onc(-c3ccccc3Cl)c2c1=O | 3.96%
44 | CCC1CCCCN1C(=O)Cn1c(=O)n(CCCCCC(=O)NCc2ccc(F)cc2)c(=O)c2sccc21 (stereo not drawn) | 6.12%
45 | Cc1cccn2c(=O)cc(COc3ccc(NC(=O)c4cccc(F)c4)cc3)nc12 | -8.36%
46 | O=C(NCc1ccc(Cl)cc1)c1ccc2c(c1)NC(=O)C(CS(=O)(=O)Cc1ccccc1Cl)N2 (stereo not drawn) | -7.88%
47 | O=C(NCc1ccccc1Cl)c1ccc(CSCc2cccc(F)c2)o1 | -9.41%
48 | Cc1ccc(NC(c2nnc(-c3ccccc3)o2)c2ccccc2F)c([N+](=O)[O-])c1 (stereo not drawn) | 16.8%
